Test results as given in PubChem BioAssay AID1159614 (National Center for Advancing Translational Sciences (NCATS), 2016).
Out of some 45,000 compounds screened, about 65 (0.1%) were called active. The call rests on the fitted dose curve; in most records, active means well fitted activation curve with a large enough effect; inconclusive means small, poorly fitted or top-dose-only effect; inactive means no such curve, though single readings can be large or run the other way. This is one part of the list.

What follows are compounds tested against Galactocerebrosidase (Homo sapiens) (UniProt P54803) (assay: A Novel Cell-Based Assay to Identify Small Molecules for B -Galactocerebrosidase). Settings: 145M-Twi-hGALC-G270D cells, HMU-beta-Gal fluorescence, 48 h; series mostly up to 57.5 µM; activation: at the top concentration.
Sequence of UniProt P54803 (P54803 whole entry, looked up): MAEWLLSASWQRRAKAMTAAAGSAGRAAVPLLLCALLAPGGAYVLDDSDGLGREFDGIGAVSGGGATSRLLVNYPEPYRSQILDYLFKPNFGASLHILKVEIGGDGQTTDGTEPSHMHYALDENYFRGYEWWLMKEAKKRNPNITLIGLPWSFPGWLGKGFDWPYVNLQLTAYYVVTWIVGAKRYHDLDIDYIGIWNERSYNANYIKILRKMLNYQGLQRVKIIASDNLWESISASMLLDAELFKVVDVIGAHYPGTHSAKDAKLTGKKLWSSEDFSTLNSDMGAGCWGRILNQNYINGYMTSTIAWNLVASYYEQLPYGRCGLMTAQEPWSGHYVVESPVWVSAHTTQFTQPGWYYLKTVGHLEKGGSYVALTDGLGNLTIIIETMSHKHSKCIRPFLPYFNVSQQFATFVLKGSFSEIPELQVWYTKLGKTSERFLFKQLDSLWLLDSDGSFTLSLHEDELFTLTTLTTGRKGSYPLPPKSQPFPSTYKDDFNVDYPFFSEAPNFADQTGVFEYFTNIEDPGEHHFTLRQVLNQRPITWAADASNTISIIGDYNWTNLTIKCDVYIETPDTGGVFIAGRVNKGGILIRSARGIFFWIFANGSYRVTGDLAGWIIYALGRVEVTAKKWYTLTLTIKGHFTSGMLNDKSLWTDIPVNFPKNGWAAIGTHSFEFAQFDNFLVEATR
Method in brief: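 qHTS, 1536-well; 145M-Twi-hGALC-G270D cells (WT line also made) in DMEM/F12 + 10% FBS; compound incubation on live cells; HMU-β-gal 0.1 mM final, pH 5.2, NaTC; carbonate stop; fluorescence increase = enhanced residual activity.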
Further: nearly all actives have a fitted effect of over 65% in size.
Potency means the concentration at half of the fitted maximal effect.
Wherever activation is given: 0% is about no effect.

Row | SMILES | activation | Potency
1 | Cc1cn(C)c(CC(=O)NCc2ccc(F)cc2)c1C(=O)O | inactive: -5.17% | 
2 | CCOC(=O)c1ccccc1NC(=O)CSc1nc2ncccc2o1 | inactive: -5.51% | 
3 | O=C(Nc1ccc(N2CCC(N3CCCCC3)CC2)c(C(=O)O)c1)c1ccccc1 | inactive: 13.1% | 
4 | O=C(COc1ccccc1)N(Cc1cccnc1)c1nc2ccc(Cl)cc2s1 | inactive: -9.57% | 
5 | CNS(=O)(=O)c1cn(CC(=O)N2CCN(c3ccc(OC)cc3)CC2)cc1S(=O)(=O)NC | inactive: -9.09% | 
6 | Cc1ccc(NS(=O)(=O)c2ccc3c4c(cccc24)C(=O)N3)c(C)c1 | inactive: -9.74% | 
7 | CCn1cc(C(=O)NCc2ccccc2)c(=O)c2cc(S(=O)(=O)N3CCCCC3)ccc21 | inactive: -14.7% | 
8 | Cc1cc(Nc2cccc(C(F)(F)F)c2)ncn1 | inactive: -10.4% | 
9 | Cc1cccc(-c2nc3c4ccccc4nc(NCc4ccccc4Cl)n3n2)c1 | inactive: -7.02% | 
10 | CN(Cc1ccccc1)S(=O)(=O)c1ccc(F)c(C(=O)Nc2ccccc2C(F)(F)F)c1 | inactive: -3.29% | 
11 | Cc1ccc(C(NC(=O)Cc2cccs2)C(=O)Nc2ccc(C(C)C)cc2)cc1 (stereo not drawn) | inactive: -12.5% | 
12 | Nc1c(C(=O)Nc2cccc(Cl)c2)sc2nc3c(cc12)CN(Cc1ccccc1)CC3 | inactive: -19% | 
13 | CCOCCCn1c(=N)c(S(=O)(=O)c2ccc(C)cc2)cc2c(=O)n3ccccc3nc21 | inactive: 7.03% | 
14 | CCOC(=O)c1c(NC(=O)C(C)Sc2cn(CCNC(=O)c3ccc(OC)c(OC)c3)c3ccccc23)sc2c1CCC2 (stereo not drawn) | inactive: -7.14% | 
15 | COc1ccc(CC(=O)NC2CC(=O)N(c3ccc4c(c3)OCCO4)C2)cc1 (stereo not drawn) | inactive: -11.5% | 
16 | CC(C)NC(=O)c1ccc(Cn2c(=O)c3cccn3c3cccnc32)cc1 | inactive: -4.4% | 
17 | CCN1CCN(Cc2c(O)ccc3c(=O)c(Oc4ccccc4Cl)c(C(F)(F)F)oc23)CC1 | inactive: -23.2% | 
18 | CCOC(=O)c1c(C)oc2nc(C)nc(NCc3ccc(C)cc3)c12 | inactive: -15.1% | 
19 | COCCCNc1nc2c(-c3ccccc3)nnn2c2ccccc12 | inactive: -5.89% | 
20 | CO[C@]1(NC(=O)CSC(F)F)C(=O)N2C(C(=O)O)=C(CSc3nnnn3CCO)CO[C@H]21 | inactive: -5.83% | 
21 | CCOCCCn1c(=N)c(C(=O)NCc2ccco2)cc2c(=O)n3ccccc3nc21 |  | active: 22.4 µM
22 | COc1ccc2nc3sc(C(=O)Nc4cc(Cl)c(OC)cc4OC)cc3cc2c1 | inactive: -15% | 
23 | O=C(CSc1nncn2c1cc1sccc12)Nc1ccccc1C(F)(F)F | inactive: -12.1% | 
24 | O=C(NCCC1=CCCCC1)c1ccc2c(c1)N(Cc1ccc(F)cc1)C(=O)c1ccccc1S2(=O)=O | inactive: -10.2% | 

Row | SMILES | activation | Potency
25 | COc1ccc(NC(=O)C2(c3cccs3)CCOCC2)cc1Cl | inactive: -5.16% | 
26 | CCOC(=O)c1c(C)sc(-c2c(-c3ccc4c(c3)OCCO4)[nH]c3c2c(=O)[nH]c(=O)n3C)c1O | inactive: -19.5% | 
27 | COC(=O)c1ccccc1NC(=O)c1cc2nc(-c3ccccc3)cc(-c3ccccc3)n2n1 | inactive: -13.2% | 
28 | Cc1ccccc1C(=O)NCC(c1cccnc1)N1CCc2ccccc21 (stereo not drawn) | inactive: -13.8% | 
29 | COc1cccc(-n2c(=O)c3sc4ccccc4c3n(CC(=O)Nc3ccc(F)cc3F)c2=O)c1 | inactive: -4.62% | 
30 | Cc1ccc(Cl)cc1N1CCN(CCCNc2ncnc3onc(-c4ccc(F)cc4)c23)CC1 | inactive: -1.26% | 
31 | COc1ccc(N2CC3=C(C2=O)C(c2ccc(Br)cc2)NC(=O)N3C)cc1 (stereo not drawn) | inactive: -4.6% | 
32 | Cc1cc(Nc2sc(C(=O)c3ccc(F)cc3)c(N)c2C(=O)Nc2ccc(F)cc2)ccc1Cl | inactive: 0.663% | 
33 | COc1cc(NC(=O)CSc2nc(C)c(C(=O)Nc3ccccc3)c(-c3ccc(OC)c(OC)c3)c2C#N)c(OC)cc1Cl | inactive: -16.7% | 
34 | O=C1CC(=O)Nc2cc(S(=O)(=O)N3CCOc4ccccc43)ccc2N1 | inactive: -7.13% | 
35 | CC(C)CN(CCCNC(=O)CN1C(=O)COc2ccc(S(=O)(=O)N3CCCCCC3)cc21)CC(C)C | inactive: -12.2% | 
36 | COc1cccc(N2CCN(C(=O)c3c(C)oc4ncnc(N5CCCCC5)c34)CC2)c1 | inactive: -5.33% | 
37 | Cc1ccc(-c2nnc(Nc3ccc(O)cc3)c3ccccc23)cc1S(=O)(=O)NCc1nc2ccccc2[nH]1 | inactive: -14.4% | 
38 | COC(=O)CCCCC(CCSS/C(CCO)=C(\C)N(C=O)Cc1cnc(C)nc1N)SC(C)=O (stereo not drawn) | inactive: -17% | 
39 | CCc1ccc(OCC(=O)N(Cc2ccco2)Cc2ccco2)cc1 | inactive: -9.12% | 
40 | CCCOc1ccc(OC(=O)c2c(-c3ccccc3Cl)noc2C)cc1 | inactive: -16.5% | 
41 | COc1ccc(NC(=O)Cn2c(=O)n(-c3ccc(CC(=O)NCC4CCCO4)cc3)c(=O)c3ccccc32)c(OC)c1 (stereo not drawn) | inactive: 0.265% | 
42 | COc1ccc(NC(=O)c2cc3c([nH]c2=O)CC(c2ccccc2)CC3=O)cc1 (stereo not drawn) | inactive: -25.2% | 
43 | COc1ccc(-c2nn3c(-c4ccc(C)cc4)nnc3c3ccccc23)cc1 | inactive: -12.3% | 
44 | COc1cccc(CN2C(=O)c3ccccc3Sc3ccc(C(=O)NCCc4ccc(Cl)cc4)cc32)c1 | inactive: -19.4% | 
45 | COc1ccc(NC(=O)c2ccc3c(c2)c(C)c(C)n3Cc2ccc(F)cc2)c(OC)c1 | inactive: -12.9% | 
46 | COc1ccc(C2=Nn3c(nc4sc(C(=O)Nc5cccc(C)c5)c(C)c4c3=O)SC2)cc1 | inactive: -4.84% | 
47 | COc1ccccc1N1CCN(c2nc3ccc(C)cc3nc2-n2nc(C)cc2C)CC1 | inactive: -16.1% | 
48 | CN(C(=O)c1ccc2c(c1)N(Cc1ccccc1F)C(=O)c1ccccc1S2)C1CCCCC1 | inactive: -14.4% | 

Row | SMILES | activation | Potency
49 | Cc1cccc(NCc2nnc3n2CCCCC3)c1C | inactive: -18.8% | 
50 | CCCN1CCN(CCCNC(=O)c2ccc3c(c2)sc2nc(-c4ccc(C)cc4)cn23)CC1 | inactive: -12% | 
51 | Cc1cccc(-c2noc(-c3ccc(NCC4CCCO4)c([N+](=O)[O-])c3)n2)c1 (stereo not drawn) | inactive: 1.42% | 
52 | CCOC(=O)c1c(C)n(-c2ccccc2)c2ccc(OC(=O)c3ccc(OCC)c(OCC)c3)cc12 | inactive: -4.48% | 
53 | O=C(C1CCN(c2nc3ccccc3[nH]2)CC1)N1CCN(c2ccccc2)CC1 | inactive: -11.1% | 
54 | COc1ccccc1NC(=O)CCn1nc(-c2ccccc2)c2ccccc2c1=O | inactive: -0.897% | 
55 | Cc1cc(C)cc(OCc2cc(=O)n3cc(C)sc3n2)c1 | inactive: -10.4% | 
56 | Cc1ccc(-c2nnc(Nc3ccc(Cl)cc3)c3ccccc23)cc1S(=O)(=O)N1CCOCC1 | inactive: -8.75% | 
57 | CN(C)S(=O)(=O)c1ccc2c(c1)N(CC(=O)N1CCCCC1)CCS2 | inactive: -10.2% | 
58 | Cn1cc(S(=O)(=O)c2ccccc2)c(=O)c2cc(F)c(N3CCN(c4ccc(F)cc4)CC3)cc21 | inactive: -10.5% | 
59 | O=C(Nc1c(C(=O)N2CCC(N3CCCCC3)CC2)oc2ccccc12)c1c(F)cccc1F | inactive: -17.5% | 
60 | Cc1ccc(-n2ncc3c(Nc4cccc(C)c4)ncnc32)cc1 | inactive: 2.24% | 
61 | COc1cccc(-n2c(SCC(=O)N3CCCCC3)nc3c([nH]c4ccccc43)c2=O)c1 | inactive: -2.19% | 
62 | CCOc1ccc(CCNC(=O)C(C)n2nc(C)n3c(cc4occc43)c2=O)cc1OCC (stereo not drawn) | inactive: -9.65% | 
63 | Cc1ccc(Cl)cc1N1CCN(C(=O)c2cn(C)c3ccc(S(=O)(=O)N(C)C4CCCCC4)cc3c2=O)CC1 | inactive: -15.1% | 
64 | COc1ccc(CNC(=O)CCc2nc3cccnc3n2Cc2ccccc2)cc1 | inactive: 3.58% | 
65 | O=C(Cn1cnc(S(=O)(=O)N2CCCC2)c1)Nc1ccccc1 | inactive: -2.98% | 
66 | Cc1ccc(NC(=O)Cn2c(=O)n(CCC(=O)NCCc3ccccc3)c(=O)c3ccccc32)cc1 | inactive: 1.22% | 
67 | Cc1cccc(N2CCN(C(=O)c3c(C)oc4nc(C)nc(N5CCCC5)c34)CC2C)c1 (stereo not drawn) | inactive: -0.686% | 
68 | CC(=O)Nc1ccc(NC(=O)C(Cc2ccccc2)N2Cc3ccccc3C2=O)cc1 (stereo not drawn) | inactive: -18.3% | 
69 | CC(=O)c1cccc(NC(=O)c2noc3c2CSc2ccccc2-3)c1 | inactive: -6.56% | 
70 | COc1ccc(NC(=O)c2c(N)c(C(=O)c3ccc(C)cc3)n3ccccc23)cc1OC | inactive: -19.4% | 
71 | Cc1ccc(C)c(CN2C(=O)c3ccccc3Sc3ccc(C(=O)NCc4cccs4)cc32)c1 | inactive: -1.03% | 
72 | O=C(CCc1ccccc1)NCCc1csc(-c2cccc(F)c2)n1 | inactive: -15.5% | 

Row | SMILES | activation | Potency
73 | COc1ccc(NC(=O)c2ccc3c(c2)c(C)c(C)n3Cc2ccc(F)cc2)cc1 | inactive: -11.5% | 
74 | Cc1cc(C)c2c(-n3cccc3)c(C(=O)NCCCN3CCCCC3)sc2n1 | inactive: -12% | 
75 | CCN1CCN(Cc2nc3cc(NC(=O)c4ccccc4[N+](=O)[O-])ccc3n2CC)CC1 | inactive: -13.7% | 
76 | Cc1ccc(C)c(NC(=O)C2CCN(c3nn4c(=O)cc(C)nc4s3)CC2)c1 | inactive: -3.26% | 
77 | COc1ccc(-c2nn(C)c3sc(C(=O)N4CCN(c5ccccc5F)CC4)cc23)cc1OC | inactive: -7.72% | 
78 | COc1cccc(CNC(=O)C(C)n2ccc3cc(S(=O)(=O)N4CCCCCC4)ccc32)c1 (stereo not drawn) | inactive: -41.7% | 
79 | Cc1ccccc1OCCSc1nc(C)c(Cc2ccccc2)c(=O)[nH]1 | inactive: 1.15% | 
80 | Cc1cccc2c1-c1sc(C(=O)NCCc3ccc(Cl)cc3)cc1CO2 | inactive: -14.1% | 
81 | COc1ccccc1-c1cc(NC(=O)COc2ccccc2Cl)n(-c2ccccc2)n1 | inactive: -1.25% | 
82 | Cc1ccc(-c2[nH]c3ccccc3c2SCCNC(=O)c2ccc(S(=O)(=O)N3CCOCC3)cc2)cc1 | inactive: -9.89% | 
83 | CCc1ccccc1NC(=O)Cn1c(=O)nc(-c2ccccc2)c2ccccc21 | inactive: 2.92% | 
84 | COc1ccc(CCNC(=O)CCn2c(=O)c3ccccc3n(Cc3ccc(Cl)cc3)c2=O)cc1OC | inactive: -6.8% | 
85 | CCN1C(C(=O)c2ccccc2)=C(OC(=O)C(C)C)c2ccccc2S1(=O)=O | inactive: -13.3% | 
86 | COc1ccc(CCNC(=O)CCCCn2c(=O)c3ccccc3n(CC(=O)Nc3ccccc3C)c2=O)cc1OC | inactive: -10.3% | 
87 | COc1ccc(S(=O)(=O)c2cn(Cc3ccccc3)c3cc(N4CCCC4)c(F)cc3c2=O)cc1 | inactive: -2.38% | 
88 | O=C(CCNS(=O)(=O)c1ccc2c(c1)CCN2C(=O)C1CC1)N1CCN(c2ccc(F)cc2)CC1 | inactive: -30.3% | 
89 | Cc1cc(C)cc(NC(=O)CSc2nncn3c2cc2occc23)c1 | inactive: -19.2% | 
90 | CCCC(O)c1nc2ccccc2n1CCCCOc1ccc(OC)cc1 (stereo not drawn) | inactive: -39.7% | 
91 | COc1ccc(CNC(=O)C2CCN(c3nc4ccc(C)cc4[nH]3)CC2)cc1 | inactive: -25.5% | 
92 | CCn1c2c(c(=O)n3ncc(C(=O)Nc4cccc(Cl)c4C)c13)CN(Cc1ccc(OC)cc1)CC2 | inactive: -9.02% | 
93 | CCOC(=O)c1c(C)[nH]c(C)c1S(=O)(=O)N1CCC(C(=O)NCc2ccc(C)cc2)CC1 | inactive: -0.398% | 
